According to publication PMC7819943, “Rice protein-binding microarrays: a tool to detect cis-acting elements near promoter regions in rice”:
Some of the results follow.

target: T1, OsWOX13 (Oryza sativa, UniProt Q5QMM3 1-267); assay: protein-binding microarray (RPBM); PBS, 2% BSA, 51.3 ng/ul salmon testes DNA, 50 uM zinc acetate, 200 nM TF, 25 C, 1 h; high values mean tight binding; conditions: protein: recombinant; tags: N-terminal polyhistidine and DsRed monomer fusion (pET32a); label: CyDye5-dUTP incorporated in the synthesized complementary strand; 3' TTTTT single-stranded linker to array surface; dsDNA, one strand shown
T1 sequence: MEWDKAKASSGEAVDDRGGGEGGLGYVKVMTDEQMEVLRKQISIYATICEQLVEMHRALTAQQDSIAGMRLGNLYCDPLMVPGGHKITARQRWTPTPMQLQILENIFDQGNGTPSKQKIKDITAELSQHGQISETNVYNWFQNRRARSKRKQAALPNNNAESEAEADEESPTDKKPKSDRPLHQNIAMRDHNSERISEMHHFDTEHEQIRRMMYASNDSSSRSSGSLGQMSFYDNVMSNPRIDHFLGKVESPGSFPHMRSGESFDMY
In short: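 A custom Agilent array was converted to double-stranded form by primer extension with Cy5-dUTP and blocked with 2% BSA. Protein at 200 nM in PBS with 2% BSA, salmon testes DNA and 50 µM zinc acetate was applied for 1 h at 25 °C, followed by washing. The proteins were polyhistidine–DsRed N-terminal fusions of transcription factors, expressed in E. coli BL21-CodonPlus and Ni–NTA-purified. The binding signal is per-feature fluorescence intensity (arbitrary units) from an Axon 4000B scanner.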

Sequence	binding signal
ACTGATTTTAAGCCATGCTTGCTTCGAACTGAATCCGAACCGGAGTCACCTAGTGCAG	6310 fluorescence intensity (a.u.)
GTTATTGACTGACTGGCATTGAATATGAAGCATCTAGCTGCGGAGTCACCTAGTGCAG	39700 fluorescence intensity (a.u.)
TACTCCAATCAACCCAATCGTCCAAAACACGTCGCAAGTCCGGAGTCACCTAGTGCAG	13500 fluorescence intensity (a.u.)
CAAACTTTTAATTTCAATTTCAAATTATTCAAATAGTGTCCGGAGTCACCTAGTGCAG	19800 fluorescence intensity (a.u.)
CACTTAATCTATAATTAGCGTATGTTTACTGTAGCATCATCGGAGTCACCTAGTGCAG	25900 fluorescence intensity (a.u.)
AATAAATTATCCCGGAAGAAAACAGTAAAATTCACATTGACGGAGTCACCTAGTGCAG	5720 fluorescence intensity (a.u.)
ATGAATTTCAATTACATGGGCATGTAAATAATGCAGGAATCGGAGTCACCTAGTGCAG	14900 fluorescence intensity (a.u.)
GCGGAGATGAAGTTGATGGAATGGATGAAACCCTCTGCCCCGGAGTCACCTAGTGCAG	3190 fluorescence intensity (a.u.)
TAGATGAGTTAAATATAATTATTTGTATGTTTTAATAAATCGGAGTCACCTAGTGCAG	3630 fluorescence intensity (a.u.)
TTCAAAACTTCAATAATTATGAGACTGAAACATTACTCCACGGAGTCACCTAGTGCAG	5760 fluorescence intensity (a.u.)
TGGAGAACAGATGATTGATGTCTTAGGGCCGGAGAAACGCCGGAGTCACCTAGTGCAG	31400 fluorescence intensity (a.u.)
TTTAATAATTATTCTATAGTCTTTGTGGTCCTTAAGGTTGCGGAGTCACCTAGTGCAG	20700 fluorescence intensity (a.u.)
CGGAATTGTTTCACTCGTTTAAATCGAGTGTTGTTTCACCCGGAGTCACCTAGTGCAG	3610 fluorescence intensity (a.u.)
TAATGCCTAATTGATTAGGAATACAGAAGAATAGAGATTACGGAGTCACCTAGTGCAG	27100 fluorescence intensity (a.u.)
AGGCACCAATCAAGTACACACTTCTGACAAACCTGGTTAACGGAGTCACCTAGTGCAG	8390 fluorescence intensity (a.u.)
TTGACAGTTAATCCTAGGTCTATCTATCGCACTGAGTTTGCGGAGTCACCTAGTGCAG	12400 fluorescence intensity (a.u.)
GTGAATTAACAGGGGTACTAAGAGAATCTTTTCACCATAGCGGAGTCACCTAGTGCAG	3860 fluorescence intensity (a.u.)
TCGATATCTCGATTGATGGTTTGATGTTTGTTTAATTCTGCGGAGTCACCTAGTGCAG	4980 fluorescence intensity (a.u.)
TGGGATAATTAACTCGTAATGATCCCCAAATGCGTGCGTACGGAGTCACCTAGTGCAG	28300 fluorescence intensity (a.u.)
GATATGATTCTTAATTTTATAGCTTCATCGATACGTGTTTCGGAGTCACCTAGTGCAG	5370 fluorescence intensity (a.u.)
AAACAAATTACATAATTCGCCTGTAAACTGCGAGACGAATCGGAGTCACCTAGTGCAG	16200 fluorescence intensity (a.u.)

Sequence	binding signal
GCGTCGTCACTGTGATTATATTACGAGCTGGCCACTTAATCGGAGTCACCTAGTGCAG	6720 fluorescence intensity (a.u.)
TCTCTGATTTCTCTCAAATGAATTACTGTTACCAGTTGGTCGGAGTCACCTAGTGCAG	11900 fluorescence intensity (a.u.)
TTTAAGTGAAAATCAACGGTGAGATTAGATAGTGCCATGTCGGAGTCACCTAGTGCAG	5880 fluorescence intensity (a.u.)
GAGAAATCATAACCCTGTGATTTCACGCGGCCGCCGTCGGCGGAGTCACCTAGTGCAG	6700 fluorescence intensity (a.u.)
CAGATCAATAAATTGACAGACACAACATAGATCAACGATACGGAGTCACCTAGTGCAG	18300 fluorescence intensity (a.u.)
TTATTAATTTTAAGATACGGGTATAACATTTGGGATGTTTCGGAGTCACCTAGTGCAG	8030 fluorescence intensity (a.u.)
ACACCTTAATTTTCTGGCCGTCGTGATCTGTATCGCTCTTCGGAGTCACCTAGTGCAG	6650 fluorescence intensity (a.u.)
TTAAAATTGATACAGAGCAACACAAAGAGCTAAACTAGGGCGGAGTCACCTAGTGCAG	14300 fluorescence intensity (a.u.)
CGATGATTGCTCTAGATTATATGCAACTCTCCGAATGATGCGGAGTCACCTAGTGCAG	43400 fluorescence intensity (a.u.)
AAATTAATTAATCGGCAAGCAACAGATCGATTCTGCGCACCGGAGTCACCTAGTGCAG	24300 fluorescence intensity (a.u.)
ATATAGATAGATAGAAGAAGGAAACAACTCAACCGCAGCACGGAGTCACCTAGTGCAG	11100 fluorescence intensity (a.u.)
ATCTGTTATTATCAGTTTAATATCTGATATGTGGGCCATACGGAGTCACCTAGTGCAG	5820 fluorescence intensity (a.u.)
AAAACCACAAATGATTAATAATTGCAAACACATTATTATTCGGAGTCACCTAGTGCAG	13800 fluorescence intensity (a.u.)
CTCAACAGAGATTTTAACAAAATCATATATCAAAATCTGGCGGAGTCACCTAGTGCAG	3240 fluorescence intensity (a.u.)
ACTTGTGTGATGTTTGGATTGATGCCAAAACTTGCCAAATCGGAGTCACCTAGTGCAG	3930 fluorescence intensity (a.u.)
TATAATTTATTTTATCATTGAAGTACTTTAAACATGTTTTCGGAGTCACCTAGTGCAG	18900 fluorescence intensity (a.u.)
GATTGATGGCAGTTTTGTGGCGTACACCAGGCTCATGGACCGGAGTCACCTAGTGCAG	3810 fluorescence intensity (a.u.)
TTCTAAATAGAATGGCACTCGGAAATACTTAAATGTTTAACGGAGTCACCTAGTGCAG	4670 fluorescence intensity (a.u.)
TTAACTAAATCATATAACAATAATGAGATTAAAATAGACTCGGAGTCACCTAGTGCAG	8500 fluorescence intensity (a.u.)
GTAATTTGTGGAATTATGATAGTAGTTTTCGATGTATACCCGGAGTCACCTAGTGCAG	5700 fluorescence intensity (a.u.)
ATTTGCAAATTGAGTTTCTTGTGTTCATCTTGTTCTTGCTCGGAGTCACCTAGTGCAG	5850 fluorescence intensity (a.u.)

Sequence	binding signal
TTACCAAACTGGAAATTTCGTGGTGTTACAAAATAGGACACGGAGTCACCTAGTGCAG	3600 fluorescence intensity (a.u.)
TATAAACAATTCATTAACCATCAATCTTCAATTCTGAATCCGGAGTCACCTAGTGCAG	8980 fluorescence intensity (a.u.)
CCAATTCTTCTGATAAATTGGTTGCTCTCAAGGCCTATCGCGGAGTCACCTAGTGCAG	4480 fluorescence intensity (a.u.)
ACCCGATTTTGTGATTAATGGATGAAAATTAGAGAGAGACCGGAGTCACCTAGTGCAG	18800 fluorescence intensity (a.u.)
ACCAAAATTGAAATTTTGATTAAAATTAAAACAATGTGACCGGAGTCACCTAGTGCAG	27400 fluorescence intensity (a.u.)
CAGAGTGTATTTGATTTGTGATCATCCTTTATGTGTATCACGGAGTCACCTAGTGCAG	4440 fluorescence intensity (a.u.)
TAAGATTAGTGAAAGAATTAGAACCTATGTTACATAGTTCCGGAGTCACCTAGTGCAG	3590 fluorescence intensity (a.u.)
TTGATTAGCTTGTTCATGTGACTGCGACAAAGATGTTTCGCGGAGTCACCTAGTGCAG	35700 fluorescence intensity (a.u.)
CACGCCGCTGATCAATCAGCCGCTCGTGTTAGCACGGGCCCGGAGTCACCTAGTGCAG	4040 fluorescence intensity (a.u.)
AATACTAAATTAGTTTTATTAAATTTAACATTAAATATATCGGAGTCACCTAGTGCAG	4010 fluorescence intensity (a.u.)
AGTTGATGTGTCTGTTAAGAGCGATGTGCACATGGATTTTCGGAGTCACCTAGTGCAG	5630 fluorescence intensity (a.u.)
ACTACTAACTCCAAATCATTTATAACCAATGTAATAGTCACGGAGTCACCTAGTGCAG	4370 fluorescence intensity (a.u.)
ACAACTAAATTGCTCATAAGATCGCTTAGAAACGAACTCGCGGAGTCACCTAGTGCAG	5340 fluorescence intensity (a.u.)
TAACACCCCTAATTATTTCTATACAGTTAACGTTACTACGCGGAGTCACCTAGTGCAG	5550 fluorescence intensity (a.u.)
ATTTGAATAATTAGGGAGTCTATGAACAGAAACATAGACCCGGAGTCACCTAGTGCAG	6000 fluorescence intensity (a.u.)
ATGATTGATTTGGGTAACATACCAAACACCAAACAGTTCACGGAGTCACCTAGTGCAG	56600 fluorescence intensity (a.u.)
TCTTGTTAGATTGGCTGATACCCCAGGCATCAAAAGAGGACGGAGTCACCTAGTGCAG	18500 fluorescence intensity (a.u.)
CAATAAAATTAGGGTAATATGTTCATTTGTTAGAGAAGGGCGGAGTCACCTAGTGCAG	5340 fluorescence intensity (a.u.)
ACATTAAATAACTTATATAACATATTTGCATATAAACAGTCGGAGTCACCTAGTGCAG	4200 fluorescence intensity (a.u.)
GTTGACGGTGATGATGACGATGATGATGAAGATGAGGACGCGGAGTCACCTAGTGCAG	18200 fluorescence intensity (a.u.)
TCAGAAACAGTAATTAAACATGCATAATACTATTTACTACCGGAGTCACCTAGTGCAG	6300 fluorescence intensity (a.u.)

Sequence	binding signal
TTAGATTGTCATTGGGCACCGGGCCGTAGCACATTGATAACGGAGTCACCTAGTGCAG	7590 fluorescence intensity (a.u.)
CTCTCTCTCTCACTAGCTAATTAGCTGCTACTACATCTTCCGGAGTCACCTAGTGCAG	8290 fluorescence intensity (a.u.)
ACGCTGTAAATTACTCGTACTTATATATTAATAAAAGTTTCGGAGTCACCTAGTGCAG	3290 fluorescence intensity (a.u.)
TATGAATGAGCTATTAGATTGGCTATAGGAGCAGGTACAACGGAGTCACCTAGTGCAG	11300 fluorescence intensity (a.u.)
TGGTGACTTTGTCAATCTTCAGGATTTACCGGCTCAGTCTCGGAGTCACCTAGTGCAG	9900 fluorescence intensity (a.u.)
TACACCTTTGACAGACAACAAAGCATTGAATCTTCTATGCCGGAGTCACCTAGTGCAG	5260 fluorescence intensity (a.u.)
TATATATATATATATATATATATATATTATGTATATATGTCGGAGTCACCTAGTGCAG	10100 fluorescence intensity (a.u.)
AGTATGAATCGATTTTGACAGGAACCGACGTCGTTAGCAGCGGAGTCACCTAGTGCAG	3550 fluorescence intensity (a.u.)
GATGATTGGGAGTGCGTTAGTTGCAGATGATTGGGTCAGCCGGAGTCACCTAGTGCAG	32700 fluorescence intensity (a.u.)
ATCTAGAATTAGATGTGACATATCGTAGTACTATGAACCTCGGAGTCACCTAGTGCAG	4830 fluorescence intensity (a.u.)
GCAAATAATTTAGAAATATTTTAAACAAAACTCGAATAAACGGAGTCACCTAGTGCAG	5840 fluorescence intensity (a.u.)
CTGATAATGGACATTTCTTAATTCGAACAATAATGATATCCGGAGTCACCTAGTGCAG	14500 fluorescence intensity (a.u.)
AAAATGGGATTTACGTAAATAAATTATATACAACAGGGGCCGGAGTCACCTAGTGCAG	8370 fluorescence intensity (a.u.)
GTGGATAGATTTTATAATCAAGGATTATGAACAACTGAATCGGAGTCACCTAGTGCAG	18100 fluorescence intensity (a.u.)
TCAACTGATTTTCTTTCTTTTACAATCAACTGATTTTCTTCGGAGTCACCTAGTGCAG	10100 fluorescence intensity (a.u.)
TTTAAACTGTTATTTGCATGTTACTCAAATAGTTATGAAACGGAGTCACCTAGTGCAG	5480 fluorescence intensity (a.u.)
AAAATAATTTTATTCGGGAATGGAGAGAGTACTCGCGATCCGGAGTCACCTAGTGCAG	5060 fluorescence intensity (a.u.)
ATTATTCCATCAATTAATTCACCAGACCGCATTCTCTTTTCGGAGTCACCTAGTGCAG	14500 fluorescence intensity (a.u.)
ACTAATTTTGTGATAACTATTCGAGGCTACAAACGAAAGACGGAGTCACCTAGTGCAG	14100 fluorescence intensity (a.u.)
TTAGTATTAACAAGGGTGATTGTAGATCAACATAAAGGTTCGGAGTCACCTAGTGCAG	3480 fluorescence intensity (a.u.)
AGAGATGGGTGAAGGGATTGACTGACATGTGGGCCCCACCCGGAGTCACCTAGTGCAG	6660 fluorescence intensity (a.u.)
